In ChEMBL document CHEMBL4888484, “Replenishing the malaria drug discovery pipeline: Screening and hit evaluation of the MMV Hit Generation Library 1 (HGL1) against asexual blood stage Plasmodium falciparum ,using a nano luciferase reporter read-out” (2022):
In all, about 150,000 compounds went through this assay and about 540 (0.36%) showed an effect of 50% or more. The list shows a part of the results.

The compounds below were run on Plasmodium falciparum (assay: Primary screen in NF54 nanoGlo assay, in single point, at 2uM, 72h; a lower Z score goes with more inhibition). Details: timepoint 72 hour.
Type: functional, Erythrocyte

In order of rising “% Inhibition” value:
1. Cc1n[nH]c(C2CC2)c1C(=O)N[C@@H](C)c1nncn1C1CCCC1  -27%
2. Cc1ccc(S(=O)(=O)N[C@@H](Cc2c[nH]c3ccccc23)C(=O)O)cc1  -14%
3. O=C(Cn1ccc2ccccc21)N1CC(Nc2ccncn2)C1  -14%
4. O=C(Cc1n[nH]c(=O)c2ccccc12)Nc1ccncc1  -13%
5. CNC(=O)c1c(C)n[nH]c1NCc1ccc(Cl)o1  -13%
6. C[C@H](Nc1ncnc2[nH]ncc12)c1ccc(Cl)s1  -12%
7. Cc1ccc2c(c1)N(Cc1cccc(F)c1)N=C(C(=O)N1CCCCCC1)S2(=O)=O  -11%
8. Cn1nncc1-c1csc(N2CCOCC2)n1  -11%
9. O=C1N[C@@H](c2ccc(OCc3c(F)cccc3Cl)cc2)Nc2ccccc21  -11%
10. COc1cc(CN2CCCC[C@H]2c2cn[nH]c2)cc(OC)c1OC  -11%
11. CCCCNC(=O)Cc1noc(CN(CC)C2CC2)n1  -10%
12. C[C@@](O)(CNC(=O)c1ccsc1)Cc1ccsc1  -10%
13. O=C(c1cccc(=O)[nH]1)N1CCC(n2cc(-c3cccnc3)nn2)CC1  -9%
14. COCCn1cc(S(=O)(=O)NCC(F)(F)F)cn1  -8%
15. CN(Cc1cnc2cnccn12)[C@H](c1ccc(F)cc1)C1CC1  -7%
16. CN(Cc1nc(-c2ccccn2)no1)C(=O)[C@H]1CC(=O)OC12CCCC2  -7%
17. CC(=O)Nc1cccc(-c2c[nH]nc2C#N)c1  -6%
18. O=C1C(=O)N(C2CCCCC2)C(=O)N1Cc1cccc2ccccc12  -5%
19. CCCN(C(=O)c1cnc(C2CC2)nc1)[C@H]1CCCc2cccnc21  -5%
20. Cc1ccc2c(c1)c(=O)c1c(n2C(C)C)CCN(C(=O)C(F)(F)F)C1  -4%
21. C[C@@H](C(N)=O)n1cc(-c2ccc(C(=O)N(C)C3CCN(C)CC3)cc2)cn1  -3%
22. Cc1cc(NC(=O)[C@H](C)OC(=O)c2ccc(Cl)cc2O)on1  -3%
23. CC(=O)N[C@H]1C[C@H]2CN(C(=O)NCCc3ccccc3)CC(=O)N2C1  -2%
24. O=C(NC1CCCCC1)N1CCC[C@H](CN2CCOCC2)CC1  -1%
25. O=C(CCOCC(F)F)Nc1ccc(Br)cc1O  -1%
26. COC(=O)c1nc(-c2cnn(C)c2)sc1-c1ccccc1  -1%
27. O=S(=O)(c1cccc(Cl)c1)N1CCCn2nccc21  0%
28. Cc1ccc(-c2cccc(C(=O)N3CC[C@@](O)(c4ccccc4C)C3)c2)nn1  1%
29. Cc1ncc(C(=O)N[C@@H](C)C2CCN(CC(F)(F)F)CC2)c(C2CC2)n1  2%
30. O=S1(=O)[C@H](c2ccccc2)CCN1Cc1cnc(C(F)(F)F)nc1  2%
31. NC(=O)c1cn(C2CN(Cc3cc(Cl)ccc3F)C2)nn1  2%
32. CC1CC(C(=O)N2CC(C(N)=O)C(C(N)=O)C2)CC(C)(C)C1 (centres undefined)  2%
33. CCCn1nccc1S(=O)(=O)NCC1(CO)CCOCC1  4%
34. O=S(=O)(NCCN1CCc2ccccc2C1)N1CCCCC1  5%
35. Cc1ccnc2c1NC(=O)CN2C(=O)c1ccc(Br)cc1  5%
36. C[C@@H](C(=O)Nc1n[nH]c(Cc2cccc(F)c2)n1)n1nnc(-c2ccccc2)n1  9%
37. O=C1NCCC[C@H]1c1nc(-c2cccc(CN3CCCCC3)c2)no1  11%
38. OC1=Nc2c(ncn2-c2cccnc2)[C@@H](c2cccc(Cl)c2Cl)C1  11%
39. FC(F)c1csc(Cn2cccn2)n1  12%
40. CCc1ccccc1NC(=O)C1CCN(S(=O)(=O)c2cc3c(cc2C)NC(=O)[C@H](C)O3)CC1  13%
41. O=C(Nc1ccccc1-c1cn2c(n1)CCCC2)[C@H]1CCOC1  15%
42. Cc1cc(N)nn1Cc1nnc2n1CCC2  35%

In order of falling Z score:
1. Cc1n[nH]c(C2CC2)c1C(=O)N[C@@H](C)c1nncn1C1CCCC1  2.84
2. CNC(=O)c1c(C)n[nH]c1NCc1ccc(Cl)o1  2
3. Cc1ccc2c(c1)N(Cc1cccc(F)c1)N=C(C(=O)N1CCCCCC1)S2(=O)=O  1.83
4. Cc1ccc(S(=O)(=O)N[C@@H](Cc2c[nH]c3ccccc23)C(=O)O)cc1  1.79
5. O=C1N[C@@H](c2ccc(OCc3c(F)cccc3Cl)cc2)Nc2ccccc21  1.68
6. O=C(Cn1ccc2ccccc21)N1CC(Nc2ccncn2)C1  1.6
7. C[C@@](O)(CNC(=O)c1ccsc1)Cc1ccsc1  1.44
8. Cn1nncc1-c1csc(N2CCOCC2)n1  1.43
9. O=C(Cc1n[nH]c(=O)c2ccccc12)Nc1ccncc1  1.36
10. O=C(c1cccc(=O)[nH]1)N1CCC(n2cc(-c3cccnc3)nn2)CC1  1.32
11. CC(=O)Nc1cccc(-c2c[nH]nc2C#N)c1  1.29
12. COc1cc(CN2CCCC[C@H]2c2cn[nH]c2)cc(OC)c1OC  1.24
13. C[C@H](Nc1ncnc2[nH]ncc12)c1ccc(Cl)s1  1.22
14. CN(Cc1cnc2cnccn12)[C@H](c1ccc(F)cc1)C1CC1  1.06
15. CN(Cc1nc(-c2ccccn2)no1)C(=O)[C@H]1CC(=O)OC12CCCC2  0.99
16. CCCN(C(=O)c1cnc(C2CC2)nc1)[C@H]1CCCc2cccnc21  0.98
17. COCCn1cc(S(=O)(=O)NCC(F)(F)F)cn1  0.97
18. CCCCNC(=O)Cc1noc(CN(CC)C2CC2)n1  0.83
19. O=C1C(=O)N(C2CCCCC2)C(=O)N1Cc1cccc2ccccc12  0.7
20. Cc1ccc2c(c1)c(=O)c1c(n2C(C)C)CCN(C(=O)C(F)(F)F)C1  0.62
21. C[C@@H](C(N)=O)n1cc(-c2ccc(C(=O)N(C)C3CCN(C)CC3)cc2)cn1  0.32
22. Cc1cc(NC(=O)[C@H](C)OC(=O)c2ccc(Cl)cc2O)on1  0.32
23. CC(=O)N[C@H]1C[C@H]2CN(C(=O)NCCc3ccccc3)CC(=O)N2C1  0.24
24. O=C(CCOCC(F)F)Nc1ccc(Br)cc1O  0.15
25. O=C(NC1CCCCC1)N1CCC[C@H](CN2CCOCC2)CC1  0.14
26. COC(=O)c1nc(-c2cnn(C)c2)sc1-c1ccccc1  0.13
27. O=S(=O)(c1cccc(Cl)c1)N1CCCn2nccc21  -0.04
28. Cc1ccc(-c2cccc(C(=O)N3CC[C@@](O)(c4ccccc4C)C3)c2)nn1  -0.08
29. O=S1(=O)[C@H](c2ccccc2)CCN1Cc1cnc(C(F)(F)F)nc1  -0.29
30. Cc1ncc(C(=O)N[C@@H](C)C2CCN(CC(F)(F)F)CC2)c(C2CC2)n1  -0.31
31. NC(=O)c1cn(C2CN(Cc3cc(Cl)ccc3F)C2)nn1  -0.32
32. CC1CC(C(=O)N2CC(C(N)=O)C(C(N)=O)C2)CC(C)(C)C1 (centres undefined)  -0.33
33. CCCn1nccc1S(=O)(=O)NCC1(CO)CCOCC1  -0.61
34. Cc1ccnc2c1NC(=O)CN2C(=O)c1ccc(Br)cc1  -0.61
35. O=S(=O)(NCCN1CCc2ccccc2C1)N1CCCCC1  -0.88
36. FC(F)c1csc(Cn2cccn2)n1  -1.08
37. OC1=Nc2c(ncn2-c2cccnc2)[C@@H](c2cccc(Cl)c2Cl)C1  -1.43
38. O=C1NCCC[C@H]1c1nc(-c2cccc(CN3CCCCC3)c2)no1  -1.49
39. CCc1ccccc1NC(=O)C1CCN(S(=O)(=O)c2cc3c(cc2C)NC(=O)[C@H](C)O3)CC1  -1.56
40. C[C@@H](C(=O)Nc1n[nH]c(Cc2cccc(F)c2)n1)n1nnc(-c2ccccc2)n1  -1.83
41. O=C(Nc1ccccc1-c1cn2c(n1)CCCC2)[C@H]1CCOC1  -1.91
42. Cc1cc(N)nn1Cc1nnc2n1CCC2  -3.91
